Target: MV H and F envelope glycoproteins (Measles virus, UniProt P69353)
Settings: 16677 up to 150 μM

## Cn1nc(C(F)(F)F)cc1C(=O)Nc1ccc(S(=O)(=O)N2CCCC2)cc1 [compound 16677, 1-methyl-3-(trifluoromethyl)-N-[4-(pyrrolidinylsulfonyl)-phenyl]-1H-pyrazole-5-carboxamide]
  inhibition of cell-to-cell fusion mediated by transiently expressed MV H and F proteins: entirely uninhibited

Reference: patent US8729059B2, “Paramyxovirus family inhibitors and methods of use thereof” (priority 2007, dated 2014)
